Results taken from the RNAGym collection of RNA variant scans (doi:10.7554/elife.90254).
Read counts are not given, so values of variants with three or more changes are uncertain.

B1: LINE1-full (parent)
chain: UACGUAGGUGGUUUUCCCCUGAUAGUGCUAAGGGGGCCUGGAAGUUUGGACUGGGCAGAGCUCAACACAGCGUGGCAAAGUGGCUGUGGCUAGACUGCCUCUCUGGAUUCCUCGUCACUCAGCAGGGCAUCUCUGAGAGAAAUGCC

Variants of: B1
Assay: self-cleavage, relative activity (ratio to wild type); higher = more cleavage; in vitro, sequencing; the parent is a self-cleaving ribozyme
Work on U9A A67G U81A U112A yielded a self-cleavage of 0.41.
Variant U9A A69U U81C U85C A141G has a self-cleavage of 0.08.
Variant U9A A69U U96A has a self-cleavage of 0.03.
For U9A A77G A79C, the self-cleavage was 1.36.
U9A A77G U81G U100C gave a self-cleavage of 0.
In the case of U9A A77U U96A A124G, the self-cleavage is reported as 0.
Variant U9A A77U U104C has a self-cleavage of 0.37.
Work on U9A A77U U143C yielded a self-cleavage of 0.9.
U9A A78G A117G showed a self-cleavage of 0.84.
Work on U9A A78G C101U U104C yielded a self-cleavage of 1.15.
Work on U9A A79C U87C U134A yielded a self-cleavage of 0.48.
For U9A A79G G114U U119C A140G, the self-cleavage was 0.68.
Work on U9A A79U A92U yielded a self-cleavage of 0.58.
Work on U9A A92G A121U A136G yielded a self-cleavage of 0.17.
U9A C17A G32A U119C A140U gave a self-cleavage of 0.79.
For U9A C19U A140G, the self-cleavage was 1.02.
For U9A C19U G36A A42G U108C, the self-cleavage was 1.43.
U9A C19U U73A U115G gave a self-cleavage of 1.43.
Variant U9A C19U U109C A121G has a self-cleavage of 0.42.
U9A C38U U87A U115C gave a self-cleavage of 0.09.
Work on U9A C51U U87A A94G yielded a self-cleavage of 0.15.
U9A C56U A140G showed a self-cleavage of 0.14.
For U9A C61A U96A U108C U115C C120U, the self-cleavage was 0.02.
With U9A C66U U109C the self-cleavage was 0.
In the case of U9A C76U A78G U115A, the self-cleavage is reported as 1.86.
U9A C99U A136G G137U gave a self-cleavage of 0.34.
Work on U9A C116U A141G yielded a self-cleavage of 1.93.
With U9A G10A U112C the self-cleavage was 1.18.
Work on U9A G34A A107G yielded a self-cleavage of 1.47.
In the case of U9A G35A U85A A121G, the self-cleavage is reported as 0.14.
With U9A G40A A57G the self-cleavage was 0.5.
Variant U9A G40A A79G U96C has a self-cleavage of 0.05.
Variant U9A G48A A94U has a self-cleavage of 0.28.
U9A G49A U87A A129U gave a self-cleavage of 0.05.
Variant U9A G53A A140G has a self-cleavage of 1.02.
With U9A G54A U91C A136G the self-cleavage was 0.1.
Work on U9A G72U A78G A140G A141G yielded a self-cleavage of 1.51.
Variant U9A G74A U112A has a self-cleavage of 1.34.
In the case of U9A G83A A136U A138G, the self-cleavage is reported as 2.04.
Work on U9A U12C C38A U47G A50G A78G A121C yielded a self-cleavage of 1.72.
In the case of U9A U12G G126C, the self-cleavage is reported as 0.89.
In the case of U9A U12G U14C, the self-cleavage is reported as 0.65.
With U9A U12G U14C U39C A140U the self-cleavage was 1.18.
Work on U9A U13C A42G A77U U108C G135A yielded a self-cleavage of 0.
With U9A U13C A65G C113U U119C C131U the self-cleavage was 0.11.
With U9A U13C G35U U39C C66G U73A A107G A124U the self-cleavage was 0.06.
U9A U13C U85A G97A A141G showed a self-cleavage of 0.
Work on U9A U13G U47C A78G A136G yielded a self-cleavage of 1.6.
U9A U14A G32A A79G U109C C118U A140G gave a self-cleavage of 0.27.
Work on U9A U14A U112C yielded a self-cleavage of 1.
In the case of U9A U14C A57G C98U, the self-cleavage is reported as 0.16.
With U9A U14C C84G A141G the self-cleavage was 0.17.
Variant U9A U14C U45C U85A has a self-cleavage of 0.3.
In the case of U9A U14C U130C A141G, the self-cleavage is reported as 1.05.
Work on U9A U15A A43G U47A U52G U62C U73C A141G yielded a self-cleavage of 0.
Variant U9A U15C U96C C131U U143C has a self-cleavage of 0.57.
U9A U15C U112C showed a self-cleavage of 0.69.
In the case of U9A U20A A79G A94G, the self-cleavage is reported as 0.38.
In the case of U9A U20C C99U U104A U108C, the self-cleavage is reported as 0.3.
U9A U20C C113U A129U C145A gave a self-cleavage of 1.17.
U9A U20C G53U A117G showed a self-cleavage of 1.56.
U9A U20C G54A A69U U96A showed a self-cleavage of 0.08.
U9A U20C U100A U115C U119C A142G showed a self-cleavage of 1.02.
For U9A U20G U132A, the self-cleavage was 0.5.
For U9A U23A A107G U108A, the self-cleavage was 0.87.
Work on U9A U23G G122U yielded a self-cleavage of 1.06.
U9A U26A U45A G58U U132C gave a self-cleavage of 0.12.
With U9A U26A U52C A92G the self-cleavage was 0.29.
Variant U9A U26C U115A has a self-cleavage of 1.69.
With U9A U39A A59G the self-cleavage was 0.14.
For U9A U39C A43U U47A A78G U108A, the self-cleavage was 0.62.
U9A U39C A59G A107G showed a self-cleavage of 0.
For U9A U39C A64U, the self-cleavage was 0.44.
With U9A U39C U119C the self-cleavage was 1.53.
Work on U9A U45A U47C A78G U87A yielded a self-cleavage of 0.11.
In the case of U9A U45A U109A, the self-cleavage is reported as 1.63.
With U9A U45C A136U the self-cleavage was 0.
Variant U9A U45C A138G has a self-cleavage of 1.38.
U9A U45C U108C A138G gave a self-cleavage of 0.
For U9A U47A U134C A136G, the self-cleavage was 0.86.
U9A U47C U104C showed a self-cleavage of 0.82.
For U9A U47C U108A, the self-cleavage was 0.75.
U9A U52A A57G A65G U143C showed a self-cleavage of 0.
Work on U9A U52A A78G yielded a self-cleavage of 2.12.
U9A U52A A79G U87A showed a self-cleavage of 0.23.
In the case of U9A U52A A92C, the self-cleavage is reported as 0.
U9A U62G A65G A142G gave a self-cleavage of 0.
Work on U9A U73C C84U U134C yielded a self-cleavage of 0.33.
Variant U9A U73C C116U has a self-cleavage of 2.09.
Work on U9A U85A U115A A124G U143A yielded a self-cleavage of 0.21.
U9A U85C U112C gave a self-cleavage of 0.39.
With U9A U87A A92G the self-cleavage was 0.14.
Variant U9A U104A A138U has a self-cleavage of 0.63.
U9A U112A A140G showed a self-cleavage of 1.44.
For U9A U115C U143C, the self-cleavage was 0.77.
In the case of U9A U134C A138G, the self-cleavage is reported as 1.8.
U9C A22G U26C C37U G75C A78C U109A U115A gave a self-cleavage of 0.91.
With U9C A22G U47C A65G the self-cleavage was 0.
For U9C A24C U73A C116U, the self-cleavage was 1.2.
For U9C A24G A50U A78G A142G, the self-cleavage was 0.97.
Work on U9C A24U U29C A136G A142U yielded a self-cleavage of 0.32.
Variant U9C A24U U112C has a self-cleavage of 1.07.
In the case of U9C A30G U47A A138G, the self-cleavage is reported as 0.92.
With U9C A30U A94G U130C the self-cleavage was 1.31.
U9C A31G G105C G106U C111U showed a self-cleavage of 1.5.
Variant U9C A31G U81C has a self-cleavage of 0.
With U9C A31G U87G the self-cleavage was 0.71.
Variant U9C A42G A67U C95U U134A has a self-cleavage of 0.16.
For U9C A42G G48A A65G, the self-cleavage was 0.15.
With U9C A42G U45A the self-cleavage was 1.49.
Work on U9C A42U A138G A140G yielded a self-cleavage of 1.86.
Variant U9C A42U U85C U108C U134C has a self-cleavage of 0.
For U9C A43G A50G, the self-cleavage was 1.53.
Variant U9C A43G A107U C146A has a self-cleavage of 1.51.
Variant U9C A43G U62C A136U has a self-cleavage of 0.
U9C A43G U112C U115A gave a self-cleavage of 0.71.
With U9C A43U U47C the self-cleavage was 1.15.
Work on U9C A43U U47C A124G yielded a self-cleavage of 1.15.
With U9C A50G U104A the self-cleavage was 1.16.
Work on U9C A50G U109C yielded a self-cleavage of 2.04.
U9C A50G U112C gave a self-cleavage of 1.9.
In the case of U9C A57G A64G A117U, the self-cleavage is reported as 0.55.
For U9C A57G A117G, the self-cleavage was 0.46.
For U9C A57G U62C U87C G89A U112C, the self-cleavage was 0.
U9C A57G U85G showed a self-cleavage of 0.47.
U9C A57U A69G U96C gave a self-cleavage of 0.61.
In the case of U9C A57U C131A, the self-cleavage is reported as 0.2.
U9C A59G A117U gave a self-cleavage of 0.
U9C A59G U87C showed a self-cleavage of 0.
U9C A59U A78U A107U U130C gave a self-cleavage of 1.44.
U9C A64C U109C showed a self-cleavage of 0.9.
U9C A64G C120A gave a self-cleavage of 0.25.
U9C A64U U112A showed a self-cleavage of 0.13.
Variant U9C A64U U143A has a self-cleavage of 0.68.
In the case of U9C A65G A79G U87A, the self-cleavage is reported as 0.16.
With U9C A65U A140G the self-cleavage was 0.21.
U9C A65U C110A gave a self-cleavage of 0.25.
For U9C A65U G127U, the self-cleavage was 0.18.
In the case of U9C A65U U81A U109C U132C, the self-cleavage is reported as 0.1.
Variant U9C A67C A92U has a self-cleavage of 0.04.
In the case of U9C A67G A141G, the self-cleavage is reported as 0.76.
In the case of U9C A67G U112C, the self-cleavage is reported as 0.71.
Variant U9C A67U A94G has a self-cleavage of 0.16.
Variant U9C A69G U109C A124G has a self-cleavage of 0.
For U9C A69U A79G U85C, the self-cleavage was 0.
With U9C A77G A107U the self-cleavage was 2.46.
For U9C A78G U85A U143C, the self-cleavage was 0.15.
Work on U9C A78U U112A A129G yielded a self-cleavage of 2.14.
With U9C A79G A94G the self-cleavage was 0.23.
In the case of U9C A79U U85A U102C, the self-cleavage is reported as 0.4.
U9C A94G C99U A138G gave a self-cleavage of 0.21.
With U9C A94G G105A the self-cleavage was 0.4.
U9C A124G A142G gave a self-cleavage of 1.31.
U9C A129G A142U showed a self-cleavage of 1.86.
For U9C A140G A141G, the self-cleavage was 0.63.
In the case of U9C A140G U143C, the self-cleavage is reported as 1.02.
U9C C17A A94G showed a self-cleavage of 0.42.
For U9C C17U G34A A57G A65C U85C U132C, the self-cleavage was 1.31.
U9C C17U U96C A141G showed a self-cleavage of 0.31.
With U9C C18U A30G U39G A65C U115A the self-cleavage was 0.
Variant U9C C19U A30G U81G has a self-cleavage of 1.27.
Work on U9C C19U A67U A79C A136G yielded a self-cleavage of 0.3.
Work on U9C C19U A78G yielded a self-cleavage of 1.18.
With U9C C19U A117G the self-cleavage was 1.51.
With U9C C19U U108C the self-cleavage was 1.86.
Work on U9C C28U A77U U102A yielded a self-cleavage of 1.02.
With U9C C66U U119A A129C the self-cleavage was 0.06.
